Measured values reported in paper PMC9911399, “Two distinct binding modes provide the RNA-binding protein RbFox with extraordinary sequence specificity”.
Where a chain is given by its changes, count along the chain named. This is one part of the list.

B1: GCCAAAC (DNA:RNA)
RNA: GGGAGACCGGAAUUCAGAUUGUCCGCCAAACUUAAAUCCCGUCGUAGCCACCA
DNA 1: CAATCTGAATTCCGGTCTCCC
DNA 2: TGGTGGCTACGACGGGATT
B2: CAGCGGU (DNA:RNA)
RNA: GGGAGACCGGAAUUCAGAUUGUCCCAGCGGUUUAAAUCCCGUCGUAGCCACCA
DNA 1: CAATCTGAATTCCGGTCTCCC
DNA 2: TGGTGGCTACGACGGGATT
B3: UUAUUAA (DNA:RNA)
RNA: B1 RNA with G25U, C26U, C27A, A28U, A29U, C31A
DNA 1: CAATCTGAATTCCGGTCTCCC
DNA 2: TGGTGGCTACGACGGGATT
B4: CUAUGAU (DNA:RNA)
RNA: B2 RNA with A26U, G27A, C28U, G30A
DNA 1: CAATCTGAATTCCGGTCTCCC
DNA 2: TGGTGGCTACGACGGGATT
B5: UUUCUCA (DNA:RNA)
RNA: B2 RNA with C25U, A26U, G27U, G29U, G30C, U31A
DNA 1: CAATCTGAATTCCGGTCTCCC
DNA 2: TGGTGGCTACGACGGGATT
B6: AGUACUG (DNA:RNA)
RNA: B1 RNA with G25A, C26G, C27U, A29C, A30U, C31G
DNA 1: CAATCTGAATTCCGGTCTCCC
DNA 2: TGGTGGCTACGACGGGATT
B7: ACACCAC (DNA:RNA)
RNA: B1 RNA with G25A, C27A, A28C, A29C
DNA 1: CAATCTGAATTCCGGTCTCCC
DNA 2: TGGTGGCTACGACGGGATT
B8: CUGAUCC (DNA:RNA)
RNA: B2 RNA with A26U, C28A, G29U, G30C, U31C
DNA 1: CAATCTGAATTCCGGTCTCCC
DNA 2: TGGTGGCTACGACGGGATT
B9: AAUGACG (DNA:RNA)
RNA: B2 RNA with C25A, G27U, C28G, G29A, G30C, U31G
DNA 1: CAATCTGAATTCCGGTCTCCC
DNA 2: TGGTGGCTACGACGGGATT
B10: AAACAGG (DNA:RNA)
RNA: B2 RNA with C25A, G27A, G29A, U31G
DNA 1: CAATCTGAATTCCGGTCTCCC
DNA 2: TGGTGGCTACGACGGGATT
B11: GGUCGCU (DNA:RNA)
RNA: B2 RNA with C25G, A26G, G27U, G30C
DNA 1: CAATCTGAATTCCGGTCTCCC
DNA 2: TGGTGGCTACGACGGGATT
B12: AACAAUG (DNA:RNA)
RNA: B1 RNA with G25A, C26A, A30U, C31G
DNA 1: CAATCTGAATTCCGGTCTCCC
DNA 2: TGGTGGCTACGACGGGATT
B13: UGUGUAA (DNA:RNA)
RNA: B1 RNA with G25U, C26G, C27U, A28G, A29U, C31A
DNA 1: CAATCTGAATTCCGGTCTCCC
DNA 2: TGGTGGCTACGACGGGATT
B14: GCCGCCC (DNA:RNA)
RNA: B1 RNA with A28G, A29C, A30C
DNA 1: CAATCTGAATTCCGGTCTCCC
DNA 2: TGGTGGCTACGACGGGATT
B15: ACGAAAC (DNA:RNA)
RNA: B1 RNA with G25A, C27G
DNA 1: CAATCTGAATTCCGGTCTCCC
DNA 2: TGGTGGCTACGACGGGATT
B16: ACAUGGG (DNA:RNA)
RNA: B2 RNA with C25A, A26C, G27A, C28U, U31G
DNA 1: CAATCTGAATTCCGGTCTCCC
DNA 2: TGGTGGCTACGACGGGATT
B17: CGGCAGG (DNA:RNA)
RNA: B2 RNA with A26G, G29A, U31G
DNA 1: CAATCTGAATTCCGGTCTCCC
DNA 2: TGGTGGCTACGACGGGATT
B18: UCCGGAC (DNA:RNA)
RNA: B1 RNA with G25U, A28G, A29G
DNA 1: CAATCTGAATTCCGGTCTCCC
DNA 2: TGGTGGCTACGACGGGATT
B19: AGGGAAG (DNA:RNA)
RNA: B1 RNA with G25A, C26G, C27G, A28G, C31G
DNA 1: CAATCTGAATTCCGGTCTCCC
DNA 2: TGGTGGCTACGACGGGATT
B20: ACUGAUU (DNA:RNA)
RNA: B1 RNA with G25A, C27U, A28G, A30U, C31U
DNA 1: CAATCTGAATTCCGGTCTCCC
DNA 2: TGGTGGCTACGACGGGATT

target: T1, RBFOX1 RRM (Homo sapiens, UniProt Q9NWB1 109-208); assay: EMSA; HiTS-Eq, 1 nM pool, 10 min; buffer printed only for the single-RNA assays: 10 mM Tris pH 7.5, 150 mM NaCl, 3.4 mM EDTA, 0.001% NP-40, 30 C; details: tags: His6 N-terminal (pET28a); label: 5' 32P
T1 sequence: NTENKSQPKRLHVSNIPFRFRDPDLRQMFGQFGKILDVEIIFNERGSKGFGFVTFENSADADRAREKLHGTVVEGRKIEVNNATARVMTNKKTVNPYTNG
In short: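 Relative association constants, normalised to the cognate motif, were derived by comparing read counts of each RNA species with those of the control reaction. The RNA sequenced was the free fraction, separated by 8% native PAGE after a 10 min equilibration in 50 µL of 1 nM 5′-radiolabelled RNA (7 randomized nucleotides) with increasing concentrations of purified wild-type or mutant RbFox RRM.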

**Q.** B1 was tested. Which binding signal did it give?
**A.** The binding signal was 0.00274 KA relative to UGCAUGU.

**Q.** For B2, which binding signal is on record?
**A.** The binding signal was 0.0136 KA relative to UGCAUGU.

**Q.** For B3, which binding signal is on record?
**A.** Its binding signal is 0.00893 KA relative to UGCAUGU.

**Q.** B4 was tested. Which binding signal did it give?
**A.** The binding signal was 0.0121 KA relative to UGCAUGU.

**Q.** With B5 as the binder, how does the binding signal read?
**A.** Its binding signal is 0.00766 KA relative to UGCAUGU.

**Q.** How did the binding signal turn out when B6 was run?
**A.** Its binding signal is 0.0112 KA relative to UGCAUGU.

**Q.** How did the binding signal turn out when B7 was run?
**A.** The binding signal was 0.000358 KA relative to UGCAUGU.

**Q.** How did the binding signal turn out when B8 was run?
**A.** The binding signal was 0.00751 KA relative to UGCAUGU.

**Q.** Which binding signal does the source give for B9 here?
**A.** The binding signal was 0.00561 KA relative to UGCAUGU.

**Q.** With B10 as the binder, how does the binding signal read?
**A.** Its binding signal is 0.00287 KA relative to UGCAUGU.

**Q.** How did the binding signal turn out when B11 was run?
**A.** Its binding signal is 0.0119 KA relative to UGCAUGU.

**Q.** How did the binding signal turn out when B12 was run?
**A.** The binding signal was 0.00446 KA relative to UGCAUGU.

**Q.** B13 was tested. Which binding signal did it give?
**A.** Its binding signal is 0.0108 KA relative to UGCAUGU.

**Q.** With B14 as the binder, how does the binding signal read?
**A.** Its binding signal is 0.0117 KA relative to UGCAUGU.

**Q.** With B15 as the binder, how does the binding signal read?
**A.** The binding signal was 0.00351 KA relative to UGCAUGU.

**Q.** For B16, which binding signal is on record?
**A.** Its binding signal is 0.0064 KA relative to UGCAUGU.

**Q.** B17 was tested. Which binding signal did it give?
**A.** Its binding signal is 0.0105 KA relative to UGCAUGU.

**Q.** B18 was tested. Which binding signal did it give?
**A.** Its binding signal is 0.00639 KA relative to UGCAUGU.

**Q.** For B19, which binding signal is on record?
**A.** Its binding signal is 0.0177 KA relative to UGCAUGU.

**Q.** B20 was tested. Which binding signal did it give?
**A.** The binding signal was 0.00846 KA relative to UGCAUGU.
